Source: the supplement of paper PMC10600219
Counter-ions that a name gives are not always drawn. In all, about 2,800 compounds were measured (“cell viability relative to vehicle”: median about 1.1, lowest 2% from about 0.19 on). Some of the results follow.

tested on: NCI-H2228 parental; assay: cell viability relative to vehicle (fraction of vehicle); NCI-H2228 is an ALK-positive lung cancer line and DTP means drug-tolerant persister; higher = less growth inhibition; conditions: 100 nM; treatment time 6 days
In short: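 The 3114-agent TargetMol anti-cancer compound library was tested at 100 nM for 6 days on parental NCI-H2228 cells and on persister cells derived with 1000 nM of a targeted drug for 13 days. ATP readout by the CellTiter-Glo 3D Cell Viability Assay gave cell viability relative to DMSO vehicle-treated cells.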

Structure (SMILES)	cell viability
CCn1c(=O)c2c(nc(/C=C/c3ccc(OC)c(OC)c3)n2C)n(CC)c1=O [Istradefylline]	1.06
O=c1cc(-c2ccccc2)oc2ccccc12 [Flavone]	1.12
C/C=C\c1ccc(OC)cc1 [cis-Anethol]	1.09
CC1=NN(c2ccc(C)c(C)c2)C(=O)/C1=N\Nc1cccc(-c2cccc(C(=O)O)c2)c1O [Eltrombopag Olamine]	1.09
C[C@@H]1C/C=C/C=C/C=C/C=C/[C@H](O[C@@H]2O[C@H](C)[C@@H](O)[C@H](N)[C@@H]2O)C[C@@H]2O[C@](O)(C[C@@H](O)C[C@H]3O[C@@H]3/C=C/C(=O)O1)C[C@H](O)[C@H]2C(=O)O [Pimaricin]	1.15
CONC(=O)Nc1ccc(-c2sc3c(c2CN(C)Cc2ccccc2)c(=O)n(-c2ccccc2)c(=O)n3Cc2c(F)cccc2F)cc1 [Sufugolix]	0.979
O=C(/C=C/c1cccc(S(=O)(=O)Nc2ccccc2)c1)NO [Belinostat]	0.851
CCC(Sc1nnc2c3ccccc3n(CC)c2n1)C(=O)Nc1ccccc1OC (stereo not drawn)	1.01
Cc1c(N)c(=O)n(-c2ccccc2)n1C [4-Aminoantipyrine]	1.08
CCN(CC)CCCC[C@H](NC(=O)[C@H](CC(C)C)NC(=O)[C@H](C)NC(=O)[C@H](Cc1ccccc1)NC(=O)c1ccc(C(C)(C)C)cc1)C(=O)N[C@@H](CO)C(=O)OC	1.02
OCC1OC(O)CC(O)C1O [2-Deoxy-D-glucose]	1.08
COc1cc2nccc(Oc3ccc(NC(=O)c4cn(C(C)C)c(=O)n(-c5ccc(F)cc5)c4=O)cc3F)c2cc1OC	0.941
Nc1nc2c(cnn2CCc2ccccc2)c2nc(-c3ccco3)nn12	1.04
CC(C)(C)c1cc(NC(=O)Nc2ccc(-c3cn4c(n3)sc3cc(OCCN5CCOCC5)ccc34)cc2)no1 [Quizartinib]	0.968
CN1CCN(c2ccc(-c3cccc(CN4CCOCC4)c3)cc2NC(=O)c2c[nH]c(=O)cc2C(F)(F)F)CC1	0.943
O=C(CCBr)N1CCN(C(=O)CCBr)CC1 [Pipobroman]	1
CNC(=O)c1ccc(N2C(=S)N(c3ccc(C#N)c(C(F)(F)F)c3)C(=O)C2(C)C)cc1F [Enzalutamide]	1.09
N[C@H]1CONC1=O [L-Cycloserine]	1.11
CCCc1ccc(OCC(=O)N(Cc2nc(-c3cccnc3)no2)C(C)C)cc1	1.1
CC(C)n1ncnc1-c1cn2c(n1)-c1ccc(O[C@@H](C)C(N)=O)cc1OCC2	0.745
COc1cc2nc(N3CCN(C(=O)C4COc5ccccc5O4)CC3)nc(N)c2cc1OC (stereo not drawn) [Doxazosin mesylate]	1.09
N#C/C(=C(/N)Sc1ccc(N)cc1)c1ccccc1C(F)(F)F	0.959
CC(C)NC(=O)C1CCC(n2c(NC(=O)c3ccc(F)cc3)nc3ccc(CN4CCC(C(C)(C)O)CC4)cc32)CC1 (stereo not drawn) [Belizatinib]	0.595
NC[C@@](O)(c1ccc(Cl)cc1)c1ccc(-c2cn[nH]c2)cc1	0.912
O=c1c(O)c(-c2ccc(O)cc2)oc2cc(O)cc(O)c12 [Kaempferol]	1.09
Cc1cc(C(C)(C)C)cc(C)c1CC1=NCCN1 [Xylometazoline hydrochloride]	1.18

Structure (SMILES)	cell viability
O=C(Nc1cnc(Cl)nc1)c1ccc(F)c(F)c1	1.06
COC(=O)[C@H](CC(C)C)NC(=O)c1ccc(NC[C@@H](N)CS)cc1-c1cccc2ccccc12	1.14
O=P(O)(O)C(O)(Cn1ccnc1)P(=O)(O)O [Zoledronic Acid]	0.944
COc1ccc2c3n(c(=NC(=O)c4cccnc4)nc2c1OC)CCN3	0.536
CC(=O)O[C@H]1CC(=O)OC(C)(C)[C@@H]2CC(=O)[C@]3(C)[C@H](CC[C@@]4(C)[C@@H](c5ccoc5)OC(=O)[C@H]5O[C@]543)[C@@]12C [Nomilin]	1.13
Nc1ccn([C@H]2C[C@H](O)[C@@H](CO)O2)c(=O)n1 [2'-Deoxycytidine monohydrate]	1.07
CCN(CC)c1ccc(/C=N/NC(=O)c2ccc(O)cc2)cc1	1.07
CCCCCOc1ccccc1/C(=C\SC)n1ccnc1 [Neticonazole Hydrochloride]	0.981
CO[C@H]1/C=C/O[C@@]2(C)Oc3c(C)c(O)c4c(O)c(c5c(nc6cc(C)ccn65)c4c3C2=O)NC(=O)/C(C)=C\C=C\[C@H](C)[C@H](O)[C@@H](C)[C@@H](O)[C@@H](C)[C@H](OC(C)=O)[C@@H]1C [Rifaximin]	1.03
C[C@]12C=CC(=O)N[C@@H]1CC[C@@H]1[C@@H]2CC[C@]2(C)[C@@H](C(=O)Nc3cc(C(F)(F)F)ccc3C(F)(F)F)CC[C@@H]12 [Dutasteride]	1.08
Clc1cccc(Cl)c1NC1=NCCN1 [Clonidine hydrochloride]	1.03
CN(C)S(=O)(=O)c1ccc2c(c1)/C(=C/c1cc3c([nH]1)CCCC3)C(=O)N2	1.07
Cn1ncnc1[C@H]1c2n[nH]c(=O)c3cc(F)cc(c23)N[C@@H]1c1ccc(F)cc1 [Talazoparib]	0.618
Cc1cnc(Nc2ccc(OCCN3CCCC3)cc2)nc1Nc1cccc(S(=O)(=O)NC(C)(C)C)c1 [Fedratinib]	1.04
C=CCN(C)CCCCCCOc1ccc(C(=O)c2ccc(Br)cc2)c(F)c1 [Ro 48-8071 fumarate]	1.07
CC(=O)O[C@]1(C(C)=O)CC[C@H]2[C@@H]3C=C(Cl)C4=CC(=O)CC[C@]4(C)[C@H]3CC[C@@]21C [Chlormadinone acetate]	0.992
COc1ccc(Cl)c(Nc2nc3ccccc3nc2NS(=O)(=O)c2cccc(NC(=O)C(C)(C)N)c2)c1 [Pilaralisib]	1.12
CCCNC(=O)NS(=O)(=O)c1ccc(Cl)cc1 [Chlorpropamide]	1.24
O=C(Cc1ccccc1)Nc1nnc(CCSCCc2nnc(NC(=O)Cc3ccccc3)s2)s1	1.1
c1ccc2c(CCNc3ccc(Nc4ccncc4)cc3)c[nH]c2c1 [Serdemetan]	0.998
C[C@H](O)[C@@H](O)[C@@H](O)[C@H](O)C=O [L-(-)-Fucose]	1.08
NCCCCCC(=O)O [6-Aminocaproic acid]	1.05
CN(C)C(=N)NC(=N)N [Metformin hydrochloride]	1.14
COc1c(C)cnc(Cn2cnc3c(Cl)nc(N)nc32)c1C	0.277
CC1=C(C)C(=O)C(C(CCCCCC(=O)O)c2ccccc2)=C(C)C1=O (stereo not drawn) [Seratrodast]	0.986
CNCCc1ccccn1 [Betahistine dihydrochloride]	1.1

Structure (SMILES)	cell viability
CNCCc1ccccn1 [Betahistine]	0.93
CNCCc1ccccn1 [Betahistine mesylate]	1
Cc1csc(-c2nnc(Nc3ccc(Oc4ncccc4-c4ccnc(N)n4)cc3)c3ccccc23)c1	0.143
CC(C)c1cccc(O)c(=O)c1 [β-thujaplicin]	0.965
Nc1nc2c(ncn2COC(CO)CO)c(=O)[nH]1 [Ganciclovir]	1.1
C[C@H]1[C@H](C)CC[C@]2(C(=O)O)CC[C@]3(C)C(=CC[C@@H]4[C@@]5(C)CC[C@H](O)C(C)(C)[C@@H]5CC[C@]43C)[C@H]12 [Ursolic acid]	1.17
NC(=O)Nc1cc(-c2cccc(F)c2)sc1C(=O)N[C@H]1CCCNC1	0.381
OC(c1cc(-c2ccc(Cl)cc2)nc2ccccc12)C1CCCCN1 (stereo not drawn) [Vacquinol-1]	1.15
CC(=O)[C@@]1(O)CC[C@H]2[C@@H]3CCC4=CC(=O)CC[C@]4(C)[C@H]3CC[C@@]21C [Hydroxyprogesterone]	1.35
O=C(c1c(F)ccc(NS(=O)(=O)N2CC[C@@H](F)C2)c1F)c1c[nH]c2ncc(-c3cnc(C4CC4)nc3)cc12	1.18
Nc1nc(O)c2[nH]nnc2n1 [8-Azaguanine]	0.571
COc1cccc2c(NCc3ccccc3)nc(-n3c(N)nc4ccccc43)nc12	1.12
Nc1nccc(Oc2ccc(NC(=O)c3c[nH]cc(-c4ccc(F)cc4)c3=O)cc2F)c1Cl	1.14
CN(C)CCOC(c1ccccc1)c1ccccc1.Cn1c(=O)c2[nH]c(Cl)nc2n(C)c1=O [Dimenhydrinate]	1.1
CCS(=O)(=O)N1CC(CC#N)(n2cc(-c3ncnc4[nH]ccc34)cn2)C1 [Baricitinib Phosphate]	1.3
CCS(=O)(=O)N1CC(CC#N)(n2cc(-c3ncnc4[nH]ccc34)cn2)C1 [Baricitinib]	0.886
O=C1NCC2(CCN(CCc3ccccc3)CC2)O1 [Fenspiride hydrochloride]	1.12
Clc1ccc2c(c1)CCc1cccnc1C2=C1CCNCC1 [Desloratadine]	1.2
C[C@@H]1O[C@@H](O[C@@H]2[C@@H](O)[C@H](OCCc3ccc(O)c(O)c3)O[C@H](COC(=O)/C=C/c3ccc(O)c(O)c3)[C@H]2O)[C@H](O)[C@H](O)[C@H]1O [Isoacteoside]	1.02
Cc1cc(C)c(S(=O)(=O)N(CCc2cccc(Br)c2)Cc2ccc(-c3cccc(S(C)(=O)=O)c3)cc2)c(C)c1	1.19
O=S(=O)(c1cccc2c(O)nccc12)N1CCCNCC1 [Hydroxyfasudil Hydrochloride]	1.06
Cc1[nH]cnc1CN1CCc2c(c3ccccc3n2C)C1=O [Alosetron hydrochloride]	1.14
O=C(O)CCc1ccc(NCc2cccc(Oc3ccccc3)c2)cc1	1.1
COc1cc(C(C)C)c(Oc2cnc(N)nc2N)cc1I	1.16
COc1cn(-c2ccc(-n3cccn3)cc2F)nc(-c2ccnn2-c2ccccc2)c1=O	1.08
Nc1ncnc2c1ncn2[C@@H]1O[C@H](CO)[C@@H](O)[C@@H]1O [Vidarabine]	0.968
